Reference: the supplement of paper PMC3724861
The list shows a part of the results.

Each sequence was assayed on T1, Caupolican (Caup) homeodomain DNA-binding domain (assay: PBM E-score (8-mer, recovered from the published 9-mer minima) (E-score (dimensionless, -0.5 to 0.5)); Drosophila protein; higher = stronger relative binding preference, active = 0.31 or more).
T1 sequence: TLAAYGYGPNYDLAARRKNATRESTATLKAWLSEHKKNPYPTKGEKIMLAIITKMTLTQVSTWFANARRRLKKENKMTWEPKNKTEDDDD
Method in brief: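 An enrichment score, with higher meaning stronger, expresses relative binding preference for each short DNA word. The protein used was Caup's homeodomain DNA-binding domain (residues 214-303), produced by in vitro transcription and translation and tested at 100 nM on custom-designed protein binding microarrays. The 8-mer values were recovered from published 9-mer scores, each equal to the lower of its two constituent 8-mer scores.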

Row | Sequence | PBM E-score
1 | ACATACTC | inactive: 0.219
2 | ACGGCAGC | inactive: -0.091
3 | CGTAGTGA | inactive: -0.0452
4 | AGATAAAT | inactive: 0.184
5 | GACACCAC | inactive: 0.0942
6 | GTTTCAAA | inactive: 0.0987
7 | AGGAGGGA | inactive: -0.205
8 | AGGTCGCA | inactive: -0.0788
9 | ACTAGGCA | ≥ 0.0301
10 | GTCCGGAA | inactive: -0.0346
11 | TGCAGTAA | inactive: 0.0534
12 | ACCGTGGG | inactive: -0.197
13 | CATCGTGG | inactive: -0.124
14 | ATTTTGCC | inactive: 0.0694
15 | ATTGGGTG | inactive: 0.061
16 | ACAGAGAT | ≥ 0.129
17 | CACGCACG | inactive: -0.108
18 | ACAGAGCA | ≥ 0.105
19 | ACTCATTA | inactive: 0.0828
20 | GTCCTCGA | inactive: -0.0293
21 | ATATTGCG | inactive: 0.0521
22 | AATATCTC | inactive: 0.071
23 | CAACGCGC | inactive: -0.0756
24 | ACGGTGAT | inactive: 0.12

Row | Sequence | PBM E-score
25 | AGCAACAA | inactive: 0.182
26 | GATTGGAC | inactive: 0.0616
27 | ATCCGTCG | inactive: -0.00011
28 | TAATCCCA | inactive: 0.0674
29 | CCTAGAAC | inactive: -0.0143
30 | AAAACCAG | inactive: 0.101
31 | ATGGAATA | inactive: 0.101
32 | CCTATCTA | inactive: 0.0364
33 | AATACCCC | inactive: -0.224
34 | ATTTGATC | inactive: 0.0561
35 | CGCCTCAG | inactive: -0.27
36 | AGTTGGAG | inactive: -0.129
37 | CCACTAAA | inactive: -0.0916
38 | ACAACGCA | inactive: 0.206
39 | ACCCATTG | inactive: -0.0278
40 | ACGTTGCC | inactive: -0.149
41 | GCAACCAC | inactive: 0.0429
42 | GAACTGAC | inactive: 0.00399
43 | CTGGTCTC | inactive: -0.124
44 | CATTAGAC | inactive: -0.0721
45 | AGAGCGAA | inactive: -0.0335
46 | GCTCATGA | inactive: -0.00161
47 | GAGGGGTA | inactive: -0.164
48 | AGTGCCAA | inactive: 0.00364

Row | Sequence | PBM E-score
49 | GGATGGCC | inactive: -0.189
50 | CTGAGACC | inactive: -0.161
51 | ACTGGCAC | inactive: -0.125
52 | GATCTCAA | inactive: -0.0485
53 | AGCGAGTA | inactive: 0.00306
54 | ATACGCCG | inactive: -0.111
55 | ATACCTAA | inactive: 0.136
56 | TATAAATA | inactive: 0.183
57 | GGGTTTAC | inactive: -0.0433
58 | AACGGGCG | inactive: -0.183
59 | AATACATA | active: 0.362
60 | GGTTACAA | inactive: 0.303
61 | AACCTGCA | inactive: 0.0156
62 | AAAGCACA | inactive: 0.076
63 | GGATAAAC | inactive: 0.113
64 | AAACTAGC | inactive: -0.0478
65 | GAGAATAA | inactive: 0.052
66 | CGCAGGTC | inactive: -0.118
67 | CCCCGTGA | inactive: -0.201
68 | AAGAAATC | inactive: -0.0447
69 | AAGAAAGC | inactive: -0.122
70 | AATGGGGG | inactive: -0.235
71 | AGTTCGAT | ≥ 0.134
72 | ACAGCCAT | ≥ 0.0697

Row | Sequence | PBM E-score
73 | AGAATGGC | inactive: -0.0659
74 | ACGGTAAG | inactive: -0.0685
75 | GCGGGTAC | inactive: 0.0197
76 | CAACCGAA | inactive: -0.0219
77 | ACAACACA | active: ≥ 0.395
78 | AACGAAAT | inactive: 0.0142
79 | AAGGGACC | inactive: -0.146
80 | TATCCTCA | inactive: -0.0752
81 | AGGCAACT | ≥ 0.0502
82 | GCTAGTAC | inactive: 0.0881
83 | CCAGGAAG | inactive: -0.1
84 | CCTCATAG | inactive: -0.113
85 | AACTGTAT | inactive: 0.138
86 | ACTAGCCC | inactive: -0.114
87 | AGAGGCAG | inactive: -0.152
88 | AGGGAGTG | inactive: -0.199
89 | AGCACGTG | inactive: 0.082
90 | AATAGTGA | inactive: 0.0846
91 | TCATCGCA | inactive: 0.065
92 | CAGAGTAA | inactive: 0.00794
93 | GTTCCTTA | inactive: -0.01
94 | ACGGGAAG | inactive: -0.0385
95 | CAGAGATA | inactive: 0.084
96 | CTGGCTCC | inactive: -0.218

Row | Sequence | PBM E-score
97 | AGAGCCTC | inactive: -0.17
98 | CGGCTACC | inactive: -0.112
99 | AATGCGTC | inactive: -0.135
100 | TGACGAAA | inactive: 0.0132
101 | CTGTACAA | active: 0.335
102 | TACGGAGA | ≥ -0.0145
103 | GATCGCGA | inactive: -0.0152
104 | TAACGCGA | inactive: -0.0146
105 | GCGCTCTA | inactive: -0.198
106 | CCGGTAAG | inactive: -0.0973
107 | ATGGGGAG | inactive: -0.0709
108 | GGTTTCGA | inactive: -0.0911
109 | AAAAAGCC | inactive: -0.128
110 | AGATTGTA | inactive: 0.179
111 | TATCTAAA | inactive: 0.126
112 | AAGCGACG | inactive: -0.114
113 | AACTCAAA | inactive: 0.132
114 | ATCTGTAG | inactive: 0.0582
115 | GCCACAGC | inactive: -0.0857
116 | TACACGGA | active: 0.375
117 | GCAGTACC | inactive: 0.0779
118 | CAGGGCAC | inactive: -0.0544
119 | AGGGGCCA | ≥ -0.175
120 | CGATGGCC | inactive: -0.186

Row | Sequence | PBM E-score
121 | CTCGACTA | inactive: 0.0559
122 | AGTAATAG | inactive: 0.199
123 | TCAGATGA | inactive: 0.0776
124 | GTAGGTGA | inactive: -0.00379
125 | CGTAAGCC | inactive: -0.0966
126 | GTGAGCTA | inactive: 0.0223
127 | CCCACTAG | inactive: -0.195
128 | TATGTACA | active: 0.427
129 | GATAGTAA | inactive: 0.126
130 | GTCAAAAC | inactive: 0.0458
131 | AGGCCCGC | inactive: -0.259
132 | AAAGCCAC | inactive: -0.14
133 | AAAACGTC | ≥ 0.113
134 | CACATCGC | inactive: 0.0231
135 | TGGCCTAA | inactive: -0.0617
136 | AACCGTCT | inactive: -0.0458
137 | ATCATCCA | inactive: 0.0505
138 | CATGAGAC | inactive: 0.109
139 | CTCTGAAG | inactive: -0.17
140 | CAAGACCG | inactive: 0.0146
141 | ACTGCCTC | inactive: -0.0898
142 | GGCGCATA | inactive: -0.102
143 | ATATAAAG | inactive: 0.0656
144 | TGCATCAA | inactive: 0.0554
